Results reported in PubChem BioAssay AID2675 (National Center for Advancing Translational Sciences (NCATS), 2010).
“And” between values parts separate entries of the source, which are not always exact repeats. Equal entries are not always repeated. Among all 280,000 compounds or so, about 100 (0.036%) were called active. Inconclusive means that the source gave no clear call. Such entries were picked first, then a sample of the others. Calls follow the shape of the dose curve; as a rule, active = well fitted inhibition curve with a large enough effect in the signal ratio, with a control signal flat (not every such curve was filed as active); inconclusive = small, poorly fitted or top-dose-only effect, or effect the other way, or a change in a side signal; inactive = no such curve, though single readings can be large or run the other way; the % refers to the signal ratio. Potencies of inconclusive entries are doubtful fits and often do not repeat. “Side channel” marks fits to a control or component signal instead of the main read-out.

Molecular target: Muscleblind-like protein 1 (Homo sapiens) (UniProt Q9NR56)
UniProt Q9NR56, sequence (Q9NR56 whole entry, looked up): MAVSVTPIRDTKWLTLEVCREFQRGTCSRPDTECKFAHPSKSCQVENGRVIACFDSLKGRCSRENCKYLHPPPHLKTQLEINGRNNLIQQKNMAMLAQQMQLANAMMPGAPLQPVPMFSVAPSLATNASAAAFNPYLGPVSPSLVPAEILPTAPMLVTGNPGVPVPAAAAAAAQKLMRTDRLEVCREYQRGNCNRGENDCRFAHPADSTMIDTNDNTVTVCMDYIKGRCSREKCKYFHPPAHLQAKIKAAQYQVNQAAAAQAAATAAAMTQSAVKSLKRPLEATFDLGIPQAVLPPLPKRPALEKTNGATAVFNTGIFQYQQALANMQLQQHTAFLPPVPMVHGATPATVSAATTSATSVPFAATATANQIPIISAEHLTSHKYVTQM
Assay: qHTS Assay for Inhibitors of MBNL1-poly(CUG) RNA binding
Settings: TR-FRET MBNL1-His/biotin-(CUG)12 binding, 665/545 ratio; activity change, negative = inhibition: at 57.5 µM (top of the series)
Method in brief: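 TR-FRET readout: Ex 340 nm, 665/545 nm emission ratio, normalized to buffer-only (basal) and MBNL1-(CUG)12 controls. Complex of MBNL1-His with Biotin-(CUG)12, compounds 92 nM–58 uM, incubated 60 min at room temperature.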
% is scaled to controls: 0 for no effect and ±100 for the full control effect; potency is read from the fitted curve at half-maximal effect; tags tell the direction and shape of the fitted curve or compound fluorescence and quenching.

SMILES	Potency	activity change, negative = inhibition
O=C(O)c1cc(-c2cccc([N+](=O)[O-])c2)n[nH]1	inconclusive: 14.1 µM [quencher, side channel, partial curve]	
O=[N+]([O-])c1ccc(N2CCN(S(=O)(=O)c3ccccc3)CC2)cc1	inconclusive: 12.6 µM [quencher, side channel, partial curve]	
CC(CNc1ccc([N+](=O)[O-])cc1)NC(=O)c1ccccc1Br (centres undefined)	inconclusive: 28.2 µM [quencher, side channel, single point]	
Cc1cc(N2CCC(C)CC2)n2ncc(-c3ccccc3)c2n1	inactive	
Cn1nnc2c(C(N)=O)ncn2c1=O	inconclusive: 28.2 µM [quencher, side channel, partial curve]	
C/C(=N\N1C(=O)c2ccccc2C1=O)c1cccc([N+](=O)[O-])c1	inconclusive: 10 µM [quencher, side channel, partial curve]	
N#CC1=C(N)Nc2ncnn2C1c1ccc([N+](=O)[O-])cc1 (centres undefined)	inconclusive: 17.8 µM [quencher, side channel, partial curve]	
CSc1c(CC(=O)Nc2ccccc2)n(Cc2ccccc2)c2ccccc12	inconclusive: 0.316 µM [fluorescent, side channel, full curve, poor fit]	
Cc1csc(NC(=O)c2cc3c(C)nn(Cc4ccccc4Cl)c3s2)n1	inconclusive: 31.6 µM [fluorescent, side channel, single point]	
O=[N+]([O-])c1ccc(OCCn2cncn2)cc1	inconclusive: 28.2 µM [quencher, single point]	
CC(=O)N1CC[n+]2c(-c3ccc(Cl)cc3)csc21	inactive	
COc1ccc(CNC(=O)Cn2nc(C(F)(F)F)c(Br)c2C)cc1	inactive	
CCCCc1cc(=O)oc2c(CN(C)C)c(O)c(Cl)cc12	inconclusive: 31.6 µM [quencher, partial curve]	
Brc1c(-c2ccc3c(c2)OCO3)nc2ncccn12	inconclusive: 31.6 µM [quencher, side channel, single point]	
Cc1c(C(=O)O)sc2nc(/C=C/c3cccc(F)c3)[nH]c(=O)c12	inconclusive: 3.55 µM [quencher, full curve]	
Oc1c(Br)cc(Br)cc1CNc1cccc2cccnc12	inconclusive: 12.6 µM [quencher, side channel, partial curve]	
CC1(CCc2ccc3c(c2)OCO3)NC(=O)c2ccccc2N1 (centres undefined)	inconclusive: 1.78 µM [quencher, side channel, partial curve]	
O=C(N/N=C/c1cnc(N2CCCCC2)s1)c1ccc(Cl)cc1	inconclusive: 15.8 µM [quencher, side channel, partial curve]	
COc1ccc(/C=C(/C#N)c2cccnc2)cc1OC	inconclusive: 10 µM [quencher, side channel, partial curve]	
CN(CCOc1ccccc1)C(=O)c1ccc(N2CCCC2)c([N+](=O)[O-])c1	inconclusive: 14.1 µM [quencher, side channel, partial curve]	

SMILES	Potency	activity change, negative = inhibition
COCc1c(C(=O)OCC(=O)NCCN2C(=O)CSC2=O)oc2ccccc12	inconclusive: 3.16 µM [fluorescent, side channel, single point]	
CC(=O)Nc1ccc(C2CC(c3ccc(Cl)cc3)=NN2c2ccccc2)cc1 (centres undefined)	inactive	
O=C(CCNS(=O)(=O)c1cccc2nsnc12)NCCC1=CCCCC1	inconclusive: 25.1 µM [quencher, side channel, partial curve]	
O=C(O)CCc1nn2c3ccccc3nc2n(-c2ccccc2)c1=O	inactive	
COc1ccc(CCC(=O)NNC(=O)c2ccc(F)cc2)cc1	inactive	
Cc1ccc(C2=Nc3ccccc3N=C(c3ccc([N+](=O)[O-])cc3)C2)c(O)c1	inactive	
CN1CCN(Cc2cc(Cl)c3cccnc3c2OC(=O)c2cccs2)CC1	inconclusive: 39.8 µM [quencher, side channel, single point]	
Cc1ccc(OCC(=O)NCc2ccccc2)c([N+](=O)[O-])n1	inconclusive: 22.4 µM [quencher, side channel, partial curve, poor fit]	
O=C(O)c1cccc(NC(=O)c2ccc(CN3C(=O)c4ccccc4C3=O)cc2)c1	inconclusive: 28.2 µM [quencher, side channel, single point]	
CN1C(=O)c2cccc3c(S(N)(=O)=O)ccc1c23	inconclusive: 12.6 µM [quencher, side channel, partial curve]	
CCOC(=O)Cc1nnc(NC(=O)c2ccccc2OCC)s1	inconclusive: 3.55 µM [quencher, side channel, single point]	
Cc1cccc(C(=O)Nc2ccc(C(=O)N/N=C/c3ccc(C)o3)cc2)c1	inconclusive: 28.2 µM [quencher, side channel, partial curve]	
COc1ccc(-c2nnc(NC(=O)C(C)C)s2)c(OC)c1	inactive	
CC(Sc1nc2nn(-c3ccccc3)c(=O)c-2c2n1CCCCC2)C(N)=O (centres undefined)	inconclusive: 17.8 µM [quencher, side channel, partial curve]	
CCN1C(=O)c2cccc3c(S(=O)(=O)Nc4ccccn4)ccc1c23	inconclusive: 8.91 µM [quencher, side channel, full curve]	
Nc1nc(SCC(=O)Nc2ccc([N+](=O)[O-])cc2)n[nH]1	inconclusive: 17.8 µM [quencher, side channel, partial curve]	
COc1cccc(-c2ccc(C#N)c(OC(=O)c3ccc(Cl)cc3)n2)c1	inconclusive: 15.8 µM [quencher, side channel, partial curve]	
COc1cc(/C=N/NC(=O)CSc2ccccn2)ccc1OC(C)C	inconclusive: 28.2 µM [quencher, side channel, partial curve]	
Cc1cccc(NC(=O)c2ccc([N+](=O)[O-])s2)c1C	inconclusive: 8.91 µM [quencher, side channel, partial curve]	
O=C(c1ccccc1)c1nc2ccccc2[nH]c1=O	inconclusive: 11.2 µM [quencher, side channel, partial curve]	

SMILES	Potency	activity change, negative = inhibition
Cc1ccccc1Cn1c(C)nc2ccc([N+](=O)[O-])cc2c1=O	inconclusive: 17.8 µM [quencher, side channel, partial curve]	
O=C(c1ccccc1F)N1CCCC(c2ccccc2)C1 (centres undefined)	inconclusive: 39.8 µM [quencher, side channel, single point]	
CC1=CCC2C(=O)N(c3cccc(C(=O)NCc4ccccc4)c3)C(=O)C2C1 (centres undefined)	inactive	
COc1ccc(-c2nnc3ccc(SC)nn23)cc1	inconclusive: 25.1 µM [quencher, side channel, single point]	
Cc1c(CCOC(=O)CC23CC4CC(CC(C)(C4)C2)C3)sc[n+]1Cc1ccc([N+](=O)[O-])cc1	inconclusive: 31.6 µM [quencher, side channel, single point]	
Cc1ccc(S(=O)(=O)N(CCC#N)C2CCCCC2)c2nsnc12	inconclusive: 12.6 µM [quencher, side channel, partial curve]	
CCS(=O)(=O)N1CCCC(C(=O)NC2CCCC2)C1 (centres undefined)	inactive	
Cc1ccc2nsnc2c1NC(=O)c1ccccc1[N+](=O)[O-]	inconclusive: 2.51 µM [quencher, side channel, full curve]	
CCC(CC)c1nnc(NC(=O)c2cc(C(=O)OC)cc([N+](=O)[O-])c2)s1	inconclusive: 0.158 µM [quencher, side channel, full curve, poor fit]	
O=C(NC1CCS(=O)(=O)C1)c1ccc(N2CCCCC2)c([N+](=O)[O-])c1 (centres undefined)	inconclusive: 7.94 µM [quencher, side channel, full curve]	
O=C1NC(c2cccc([N+](=O)[O-])c2)=CCN1c1ccccc1O	inconclusive: 12.6 µM [quencher, side channel, partial curve] and inconclusive: 10 µM [quencher, side channel, partial curve]	
COc1ccc(N2C(=O)CC(Sc3nc(C)cc(C)c3C#N)C2=O)cc1 (centres undefined)	inactive	
O=C1S/C(=C\c2ccc(O)c([N+](=O)[O-])c2)C(=O)N1c1ccccc1Cl	inconclusive: 22.4 µM [quencher, side channel, partial curve]	
COC(=O)c1sc2cc(=O)n(-c3cccc(C(F)(F)F)c3)nc2c1O	inconclusive: 10 µM [quencher, side channel, full curve, poor fit]	
COc1ccc(CCNC(=O)C2CC(c3cccc([N+](=O)[O-])c3)=NO2)cc1 (centres undefined)	inconclusive: 25.1 µM [quencher, side channel, partial curve]	
O=C(CSc1nc2c(c(=O)n1-c1ccc(F)cc1)SCC2)NCc1ccco1	inconclusive: 8.91 µM [quencher, side channel, single point]	
COc1ccc(C(=O)Nc2ccc(NC(=O)c3cccs3)cc2)cc1Cl	inactive	
C(=N\NC1=Nc2cccc3cccc1c23)/c1cccnc1	inconclusive: 14.1 µM [quencher, side channel, partial curve]	
Cc1ccc(NC(=O)CC2SC(=NC3CCCCC3)NC2=O)cc1 (centres undefined)		inactive: -14.3% [at 11.5 µM]
